Experimental data reported in the antibiotic and cytotoxicity screens of Wong et al. (2023).
The other results are listed elsewhere or left out.

Key:
HSkMC = human skeletal muscle cells; assay: cytotoxicity call (relative viability < 0.9); details: 10 µM
HepG2 = assay: cytotoxicity call (relative viability < 0.9); details: 10 µM
S. aureus RN4220 = assay: growth inhibition call (relative growth <= 0.2); details: 50 µM

COc1cc(/C=C/C(=O)c2c(NCCc3ccccc3)sc(-c3ccc(O)c(OC)c3)cc2=O)ccc1O
inactive: cytotoxicity call (HSkMC) | cytotoxicity call (HepG2) | growth inhibition call (S. aureus RN4220)

COCC(=O)Nc1ccc2c(c1)C(=O)N(C)C[C@H](OC)[C@@H](C)CN(Cc1cccc(F)c1)[C@H](C)CO2
inactive: cytotoxicity call (HSkMC) | cytotoxicity call (HepG2) | growth inhibition call (S. aureus RN4220)

O=C(OCC(O)CO)c1ccccc1Nc1ccnc2cc(Cl)ccc12 (stereo not given)
inactive: cytotoxicity call (HSkMC) | cytotoxicity call (HepG2) | growth inhibition call (S. aureus RN4220)

O=C(C[C@H]1C=C[C@H](NC(=O)c2cccnc2)[C@H](CO)O1)NCCN1CCCCC1
inactive: cytotoxicity call (HSkMC) | cytotoxicity call (HepG2) | growth inhibition call (S. aureus RN4220)

C[C@H](CO)N1C[C@H](C)[C@H](CN(C)S(=O)(=O)c2ccccc2)OCCCC[C@H](C)Oc2ccc(NC(=O)Nc3cccc4ccccc34)cc2C1=O
inactive: cytotoxicity call (HSkMC) | cytotoxicity call (HepG2) | growth inhibition call (S. aureus RN4220)

C[C@H](CO)N1C[C@H](C)[C@H](CN(C)Cc2cncnc2)Oc2cc(-c3ccccc3F)ccc2S1(=O)=O
inactive: cytotoxicity call (HSkMC) | cytotoxicity call (HepG2) | growth inhibition call (S. aureus RN4220)

C[C@@H]1CN([C@H](C)CO)C(=O)c2cc(NC(=O)Cn3cnnn3)ccc2O[C@@H]1CN(C)Cc1ccc(C(F)(F)F)cc1
inactive: cytotoxicity call (HSkMC) | cytotoxicity call (HepG2) | growth inhibition call (S. aureus RN4220)

Cc1noc(C)c1NC(=O)Nc1ccc2c(c1)C(=O)N([C@@H](C)CO)C[C@@H](C)[C@@H](CN(C)C(=O)C1CCCCC1)OCCCC[C@H](C)O2
inactive: cytotoxicity call (HSkMC) | cytotoxicity call (HepG2) | growth inhibition call (S. aureus RN4220)

O=C(C[C@H]1CC[C@@H]2[C@H](COC[C@H](O)CN2S(=O)(=O)c2ccccc2Cl)O1)NCc1ccccc1Cl
inactive: cytotoxicity call (HSkMC) | cytotoxicity call (HepG2) | growth inhibition call (S. aureus RN4220)

C[C@@H]1CN([C@@H](C)CO)C(=O)Cc2cc(NS(=O)(=O)c3cn(C)cn3)ccc2O[C@@H]1CN(C)C
inactive: cytotoxicity call (HSkMC) | cytotoxicity call (HepG2) | growth inhibition call (S. aureus RN4220)
